Laboratory results reported in the GPR68 mutational scans of Howard et al. (2025).
The least precise scores are not listed. The source holds two more conditions with little spread; they are left out. In variant names, del marks residues removed and ins residues inserted between the two positions. For some of these results: The concentration of ogerin is not given here.

B1: GPR68, Q15743 (parent)
chain: MGNITADNSSMSCTIDHTIHQTLAPVVYVTVLVVGFPANCLSLYFGYLQIKARNELGVYLCNLTVADLFYICSLPFWLQYVLQHDNWSHGDLSCQVCGILLYENIYISVGFLCCISVDRYLAVAHPFRFHQFRTLKAAVGVSVVIWAKELLTSIYFLMHEEVIEDENQHRVCFEHYPIQAWQRAINYYRFLVGFLFPICLLLASYQGILRAVRRSHGTQKSRKDQIQRLVLSTVVIFLACFLPYHVLLLVRSVWEASCDFAKGVFNAYHFSLLLTSFNCVADPVLYCFVSETTHRDLARLRGACLAFLTCSRTGRAREAYPLGAPEASGKSGAQGEEPELLTKLHPAFQTPNSPGSGGFPTGRLA

Experiments:
[1] = variants of: B1; assay: cAMP reporter score (Enrich2 score, wild type = 0); higher = more signal; HEK293T, FACS bins
[2] = variants of: B1; assay: surface expression score (Enrich2 score, wild type = 0); higher = more signal; HEK293T, FACS bins

| Variant | cAMP reporter score ([1]; pH 5.5) | cAMP reporter score ([1]; pH 6) | cAMP reporter score ([1]; pH 6, modulator: ogerin) | cAMP reporter score ([1]; pH 6.5, modulator: ogerin) | surface expression score [2] |
| --- | --- | --- | --- | --- | --- |
| F190_V192del | -2.1 | -0.981 | -0.658 | -1.85 | – |
| F190_L191insGSG | -1.08 | -1.61 | -1.82 | -1.41 | -1.97 |
| R189_F190insG | -1.42 | -0.391 | – | -1.95 | -3.16 |
| MGNITADNSSMSCTIDHTIHQTLAPVVYVTVLVVGFPANCLSLYFGYLQIKARNELGVYLCNLTVADLFYICSLPFWLQYVLQHDNWSHGDLSCQVCGILLYENIYISVGFLCCISVDRYLAVAHPFRFHQFRTLKAAVGVSVVIWAKELLTSIYFLMHEEVIEDENQHRVCFEHYPIQAWQRAINYYRFFVGFLFPICLLLASYQGILRAVRRSHGTQKSRKDQIQRLVLSTVVIFLACFLPYHVLLLVRSVWEASCDFAKGVFNAYHFSLLLTSFNCVADPVLYCFVSETTHRDLARLRGACLAFLTCSRTGRAREAYPLGAPEASGKSGAQGEEPELLTKLHPAFQTPNSPGSGGFPTGRLA [L191F] | -0.631 | 0.147 | -0.346 | -0.683 | -0.337 |
| MGNITADNSSMSCTIDHTIHQTLAPVVYVTVLVVGFPANCLSLYFGYLQIKARNELGVYLCNLTVADLFYICSLPFWLQYVLQHDNWSHGDLSCQVCGILLYENIYISVGFLCCISVDRYLAVAHPFRFHQFRTLKAAVGVSVVIWAKELLTSIYFLMHEEVIEDENQHRVCFEHYPIQAWQRAINYYRFDVGFLFPICLLLASYQGILRAVRRSHGTQKSRKDQIQRLVLSTVVIFLACFLPYHVLLLVRSVWEASCDFAKGVFNAYHFSLLLTSFNCVADPVLYCFVSETTHRDLARLRGACLAFLTCSRTGRAREAYPLGAPEASGKSGAQGEEPELLTKLHPAFQTPNSPGSGGFPTGRLA [L191D] | -1.22 | -1.34 | -1.39 | – | – |
| MGNITADNSSMSCTIDHTIHQTLAPVVYVTVLVVGFPANCLSLYFGYLQIKARNELGVYLCNLTVADLFYICSLPFWLQYVLQHDNWSHGDLSCQVCGILLYENIYISVGFLCCISVDRYLAVAHPFRFHQFRTLKAAVGVSVVIWAKELLTSIYFLMHEEVIEDENQHRVCFEHYPIQAWQRAINYYRFAVGFLFPICLLLASYQGILRAVRRSHGTQKSRKDQIQRLVLSTVVIFLACFLPYHVLLLVRSVWEASCDFAKGVFNAYHFSLLLTSFNCVADPVLYCFVSETTHRDLARLRGACLAFLTCSRTGRAREAYPLGAPEASGKSGAQGEEPELLTKLHPAFQTPNSPGSGGFPTGRLA [L191A] | 1.6 | 1.25 | 1.87 | 1.16 | 1.68 |
| MGNITADNSSMSCTIDHTIHQTLAPVVYVTVLVVGFPANCLSLYFGYLQIKARNELGVYLCNLTVADLFYICSLPFWLQYVLQHDNWSHGDLSCQVCGILLYENIYISVGFLCCISVDRYLAVAHPFRFHQFRTLKAAVGVSVVIWAKELLTSIYFLMHEEVIEDENQHRVCFEHYPIQAWQRAINYYRFEVGFLFPICLLLASYQGILRAVRRSHGTQKSRKDQIQRLVLSTVVIFLACFLPYHVLLLVRSVWEASCDFAKGVFNAYHFSLLLTSFNCVADPVLYCFVSETTHRDLARLRGACLAFLTCSRTGRAREAYPLGAPEASGKSGAQGEEPELLTKLHPAFQTPNSPGSGGFPTGRLA [L191E] | -0.993 | – | -3.37 | -0.938 | -2.02 |
| Y188_R189insGSG | -1.46 | -1.54 | -0.875 | -1.51 | – |
